Experimental data as given in the supplement of paper PMC8728848.
This is one part of the list.

How the values were obtained:
Assay in all cases: glycan array binding signal (z-score within array); higher = stronger binding
Conditions in all cases: glycan notation: IUPAC condensed, linker removed
Fuc(a1-3)GlcNAc = biological target: Fuc(a1-3)GlcNAc
Outline: (§1)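 Glycan array binding is given as a within-array Z-score, which can be read as non-binding when negative. The arrays, 3228 of them, came from the Consortium for Functional Glycomics database and were retained only where the protein sequence was available. Z-scores were averaged across arrays of the same protein sequence at different concentrations or buffers and across linkers.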

[1] = biological target: Fuc(a1-3)[Gal(b1-4)]Glc6S
Outline: as §1

[2] = biological target: Fuc(a1-3)[Gal(b1-4)]GlcNAc
Outline: as §1

[3] = biological target: Fuc(a1-3)[Gal(b1-4)]GlcNAc(b1-2)Man
Outline: as §1

[4] = biological target: Fuc(a1-3)[Gal(b1-4)]GlcNAc(b1-2)Man(a1-3)[Fuc(a1-3)[Gal(b1-4)]GlcNAc(b1-2)Man(a1-6)]Man(b1-4)GlcNAc(b1-4)GlcNAc
Outline: as §1

[5] = biological target: Fuc(a1-3)[Gal(b1-4)]GlcNAc(b1-2)Man(a1-3)[Fuc(a1-3)[Gal(b1-4)]GlcNAc(b1-2)Man(a1-6)]Man(b1-4)GlcNAc(b1-4)[Fuc(a1-6)]GlcNAc
Outline: as §1

[6] = biological target: Fuc(a1-3)[Gal(b1-4)]GlcNAc(b1-3)Gal(b1-3)[Fuc(a1-4)]GlcNAc
Outline: as §1

[7] = biological target: Fuc(a1-3)[Gal(b1-4)]GlcNAc(b1-3)Gal(b1-4)[Fuc(a1-3)]GlcNAc
Outline: as §1

[8] = biological target: Fuc(a1-3)[Gal(b1-4)]GlcNAc(b1-3)Gal(b1-4)[Fuc(a1-3)]GlcNAc(b1-3)Gal(b1-4)[Fuc(a1-3)]GlcNAc
Outline: as §1

[9] = biological target: Fuc(a1-3)[Gal(b1-4)]GlcNAc(b1-3)GalNAc
Outline: as §1

[10] = biological target: Fuc(a1-3)[Gal(b1-4)]GlcNAc(b1-6)GalNAc
Outline: as §1

[11] = biological target: Fuc(a1-3)[Gal(b1-4)]GlcNAc(b1-6)[Gal(b1-3)GlcNAc(b1-3)]Gal(b1-4)Glc
Outline: as §1

[12] = biological target: Fuc(a1-3)[Gal(b1-4)]GlcNAc6S
Outline: as §1

[13] = biological target: Fuc(a1-3)[Gal3S(b1-4)]Glc
Outline: as §1

[14] = biological target: Fuc(a1-3)[Gal3S(b1-4)]GlcNAc
Outline: as §1

[15] = biological target: Fuc(a1-3)[Gal3S(b1-4)]GlcNAc6S
Outline: as §1

[16] = biological target: Fuc(a1-3)[GalNAc(b1-4)]GlcNAc
Outline: as §1

[17] = biological target: Fuc(a1-3)[GalNAc(b1-4)]GlcNAc6S
Outline: as §1

Fuc(a1-4)GlcNAc = biological target: Fuc(a1-4)GlcNAc
Outline: as §1

Fuc(b1-3)GlcNAc = biological target: Fuc(b1-3)GlcNAc
Outline: as §1

Gal(a1-2)Gal = biological target: Gal(a1-2)Gal
Outline: as §1

Gal(a1-3)Gal = biological target: Gal(a1-3)Gal
Outline: as §1

Gal(a1-3)Gal(b1-3)GlcNAc = biological target: Gal(a1-3)Gal(b1-3)GlcNAc
Outline: as §1

[18] = biological target: Gal(a1-3)Gal(b1-3)GlcNAc(b1-2)Man
Outline: as §1

[19] = biological target: Gal(a1-3)Gal(b1-3)GlcNAc(b1-2)Man(a1-3)[Gal(a1-3)Gal(b1-3)GlcNAc(b1-2)Man(a1-6)]Man(b1-4)GlcNAc(b1-4)GlcNAc
Outline: as §1

[20] = biological target: Gal(a1-3)Gal(b1-3)GlcNAc(b1-3)GalNAc
Outline: as §1

[21] = biological target: Gal(a1-3)Gal(b1-3)GlcNAc(b1-6)GalNAc
Outline: as §1

[22] = biological target: Gal(a1-3)Gal(b1-3)[Fuc(a1-4)]GlcNAc(b1-2)Man(a1-3)[Gal(a1-3)Gal(b1-3)[Fuc(a1-4)]GlcNAc(b1-2)Man(a1-6)]Man(b1-4)GlcNAc(b1-4)GlcNAc
Outline: as §1

Gal(a1-3)Gal(b1-4)Glc = biological target: Gal(a1-3)Gal(b1-4)Glc
Outline: as §1

Gal(a1-3)Gal(b1-4)GlcNAc = biological target: Gal(a1-3)Gal(b1-4)GlcNAc
Outline: as §1

[23] = biological target: Gal(a1-3)Gal(b1-4)GlcNAc(b1-2)Man
Outline: as §1

[24] = biological target: Gal(a1-3)Gal(b1-4)GlcNAc(b1-2)Man(a1-3)[Gal(a1-3)Gal(b1-4)GlcNAc(b1-2)Man(a1-6)]Man(b1-4)GlcNAc(b1-4)GlcNAc
Outline: as §1

[25] = biological target: Gal(a1-3)Gal(b1-4)GlcNAc(b1-3)GalNAc
Outline: as §1

[26] = biological target: Gal(a1-3)Gal(b1-4)GlcNAc(b1-6)GalNAc
Outline: as §1

[27] = biological target: Gal(a1-3)Gal(b1-4)[Fuc(a1-3)]GlcNAc
Outline: as §1

[28] = biological target: Gal(a1-3)Gal(b1-4)[Fuc(a1-3)]GlcNAc(b1-2)Man(a1-3)[Gal(a1-3)Gal(b1-4)[Fuc(a1-3)]GlcNAc(b1-2)Man(a1-6)]Man(b1-4)GlcNAc(b1-4)GlcNAc
Outline: as §1

Gal(a1-3)GalNAc = biological target: Gal(a1-3)GalNAc
Outline: as §1

[29] = biological target: Gal(a1-3)[Gal(a1-4)]Gal(b1-4)GlcNAc
Outline: as §1

[30] = biological target: Gal(a1-4)Gal(b1-3)GlcNAc(b1-2)Man(a1-3)[Gal(a1-4)Gal(b1-3)GlcNAc(b1-2)Man(a1-6)]Man(b1-4)GlcNAc(b1-4)GlcNAc
Outline: as §1

Gal(a1-4)Gal(b1-4)Glc = biological target: Gal(a1-4)Gal(b1-4)Glc
Outline: as §1

Gal(a1-4)Gal(b1-4)GlcNAc = biological target: Gal(a1-4)Gal(b1-4)GlcNAc
Outline: as §1

[31] = biological target: Gal(a1-4)Gal(b1-4)GlcNAc(b1-2)Man(a1-3)[Gal(a1-4)Gal(b1-4)GlcNAc(b1-2)Man(a1-6)]Man(b1-4)GlcNAc(b1-4)GlcNAc
Outline: as §1

[32] = biological target: Gal(a1-4)Gal(b1-4)GlcNAc(b1-3)Gal(b1-4)Glc
Outline: as §1

Gal(a1-4)GlcNAc = biological target: Gal(a1-4)GlcNAc
Outline: as §1

Gal(a1-6)Glc = biological target: Gal(a1-6)Glc
Outline: as §1

B1: Cohesin-hMARCO (Homo sapiens) (protein)
chain: LDDLDAVRIKVDTVNAKPGDTVRIPVRFSGIPSKGIANCDFVYSYDPNVLEIIEIEPGDIIVDPNPDKSFDTAVYPDRKIIVFLFAEDSGTGAYAITKDGVFATIVAKVKEGAPNGLSVIKFVEVGGFANNDLVEQKTQFFDGGANVGDTTEPATPTTPVTTPTTTDDLDAASVRIVGSSNRGRAEVYYSGTWGTICDDEWQNSDAIVFCRMLGYSKGRALYKVGAGTGQIWLDNVQCRGTESTLWSCTKNSWGHHDCSHEEDAGVECSVHHHHHH
Fuc(a1-3)GlcNAc
  glycan array binding signal (z-score): 0.584
[1]
  glycan array binding signal (z-score): -0.395
[2]
  glycan array binding signal (z-score): 0.146
[3]
  glycan array binding signal (z-score): -0.39
[4]
  glycan array binding signal (z-score): -0.32
[5]
  glycan array binding signal (z-score): -0.419
[6]
  glycan array binding signal (z-score): -0.398
[7]
  glycan array binding signal (z-score): -0.186
[8]
  glycan array binding signal (z-score): -0.346
[9]
  glycan array binding signal (z-score): -0.156
[10]
  glycan array binding signal (z-score): -0.03
[11]
  glycan array binding signal (z-score): -0.6
[12]
  glycan array binding signal (z-score): -0.625
[13]
  glycan array binding signal (z-score): -0.021
[14]
  glycan array binding signal (z-score): 0.507
[15]
  glycan array binding signal (z-score): -0.166
[16]
  glycan array binding signal (z-score): 0.044
[17]
  glycan array binding signal (z-score): -0.089
Fuc(a1-4)GlcNAc
  glycan array binding signal (z-score): 0.04
Fuc(b1-3)GlcNAc
  glycan array binding signal (z-score): 0.117
Gal(a1-2)Gal
  glycan array binding signal (z-score): 0.419
Gal(a1-3)Gal
  glycan array binding signal (z-score): -0.235
Gal(a1-3)Gal(b1-3)GlcNAc
  glycan array binding signal (z-score): 11.2
[18]
  glycan array binding signal (z-score): -0.227
[19]
  glycan array binding signal (z-score): -0.173
[20]
  glycan array binding signal (z-score): -0.174
[21]
  glycan array binding signal (z-score): 2.88
[22]
  glycan array binding signal (z-score): -0.129
Gal(a1-3)Gal(b1-4)Glc
  glycan array binding signal (z-score): -0.222
Gal(a1-3)Gal(b1-4)GlcNAc
  glycan array binding signal (z-score): 0.036
[23]
  glycan array binding signal (z-score): 0.685
[24]
  glycan array binding signal (z-score): 0.043
[25]
  glycan array binding signal (z-score): -0.296
[26]
  glycan array binding signal (z-score): 1.84
[27]
  glycan array binding signal (z-score): 0.768
[28]
  glycan array binding signal (z-score): 0.211
Gal(a1-3)GalNAc
  glycan array binding signal (z-score): -0.479
[29]
  glycan array binding signal (z-score): -0.402
[30]
  glycan array binding signal (z-score): -0.136
Gal(a1-4)Gal(b1-4)Glc
  glycan array binding signal (z-score): -0.421
Gal(a1-4)Gal(b1-4)GlcNAc
  glycan array binding signal (z-score): -0.328
[31]
  glycan array binding signal (z-score): -0.425
[32]
  glycan array binding signal (z-score): -0.338
Gal(a1-4)GlcNAc
  glycan array binding signal (z-score): -0.083
Gal(a1-6)Glc
  glycan array binding signal (z-score): -0.325
